Experimental data from article PMC4081100.
Only a part is listed here, and it is no random draw. For some of these results: At the low end of the ranking, values are background and their order means little. This is one part of the list. For some of these results: The exact form of the protein is not confirmed.

What was measured:
Test in all cases: universal protein binding microarray (PBM)
Conditions in all cases: transcription factors of Arabidopsis thaliana; high values mean tight binding; most listed sequences are background and not binding sites; double strand, one strand shown
[1] = biological target: T1, GST-ANAC092(1-176) (UniProt Q9FKA0)
T1 sequence: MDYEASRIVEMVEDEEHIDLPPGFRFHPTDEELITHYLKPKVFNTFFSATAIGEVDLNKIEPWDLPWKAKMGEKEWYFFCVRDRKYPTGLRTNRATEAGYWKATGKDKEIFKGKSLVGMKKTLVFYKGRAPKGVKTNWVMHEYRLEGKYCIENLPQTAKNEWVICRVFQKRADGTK

[2] = biological target: GST-NTL6(1-168) (UniProt Q9SCK6)
[3] = biological target: T2, GST-ANAC019 NAC domain (UniProt Q9C932)
T2 sequence: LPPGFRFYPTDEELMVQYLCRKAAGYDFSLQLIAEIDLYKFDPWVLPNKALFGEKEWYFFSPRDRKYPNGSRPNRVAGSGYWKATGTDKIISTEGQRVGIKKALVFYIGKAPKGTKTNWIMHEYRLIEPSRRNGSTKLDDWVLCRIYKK

[4] = biological target: T3, GST-ANAC055(1-171) (UniProt Q9LDY8)
T3 sequence: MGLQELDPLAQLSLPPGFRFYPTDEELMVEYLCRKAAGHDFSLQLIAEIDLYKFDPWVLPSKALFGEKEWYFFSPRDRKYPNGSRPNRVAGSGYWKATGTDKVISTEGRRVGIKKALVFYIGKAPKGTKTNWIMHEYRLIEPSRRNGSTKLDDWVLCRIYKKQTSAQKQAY

[5] = biological target: T4, GST-ATAF1 NAC domain (UniProt Q39013)
T4 sequence: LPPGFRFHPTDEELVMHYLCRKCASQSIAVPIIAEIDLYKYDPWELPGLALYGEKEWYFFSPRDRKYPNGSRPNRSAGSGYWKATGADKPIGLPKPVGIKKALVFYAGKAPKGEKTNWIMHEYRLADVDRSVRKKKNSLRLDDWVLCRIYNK

[6] = biological target: T5, GST-ANAC092(1-285) full length (UniProt Q9FKA0)
T5 sequence: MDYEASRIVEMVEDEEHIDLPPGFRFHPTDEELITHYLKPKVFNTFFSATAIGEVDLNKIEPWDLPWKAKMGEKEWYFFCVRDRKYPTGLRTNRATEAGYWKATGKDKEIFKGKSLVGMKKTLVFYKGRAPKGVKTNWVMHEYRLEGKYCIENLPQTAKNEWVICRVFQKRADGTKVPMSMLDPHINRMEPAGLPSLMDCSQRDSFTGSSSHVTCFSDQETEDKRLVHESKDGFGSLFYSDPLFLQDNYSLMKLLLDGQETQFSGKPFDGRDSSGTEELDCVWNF

[7] = biological target: T6, GST-NAP(1-166) (UniProt O49255)
T6 sequence: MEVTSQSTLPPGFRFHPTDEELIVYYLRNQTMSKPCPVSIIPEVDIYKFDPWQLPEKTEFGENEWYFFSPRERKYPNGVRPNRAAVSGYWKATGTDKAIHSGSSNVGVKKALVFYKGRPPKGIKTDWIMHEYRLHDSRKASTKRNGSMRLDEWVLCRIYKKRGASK

[8] = biological target: T7, GST-NST2(1-184) (UniProt Q9M274)
T7 sequence: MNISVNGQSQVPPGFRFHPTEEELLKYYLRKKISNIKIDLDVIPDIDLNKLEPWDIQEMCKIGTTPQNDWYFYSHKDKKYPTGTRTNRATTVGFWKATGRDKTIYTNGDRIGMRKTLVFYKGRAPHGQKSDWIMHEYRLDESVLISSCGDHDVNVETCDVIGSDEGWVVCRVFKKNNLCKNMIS

[9] = biological target: T8, GST-NTL8 NAC domain (UniProt Q9XIN7)
T8 sequence: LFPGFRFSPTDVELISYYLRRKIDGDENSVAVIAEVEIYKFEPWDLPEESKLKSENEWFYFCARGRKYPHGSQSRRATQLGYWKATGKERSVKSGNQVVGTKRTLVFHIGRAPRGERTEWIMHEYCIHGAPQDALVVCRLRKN

[10] = biological target: T9, GST-SND1(1-203) (UniProt Q9LPI7)
T9 sequence: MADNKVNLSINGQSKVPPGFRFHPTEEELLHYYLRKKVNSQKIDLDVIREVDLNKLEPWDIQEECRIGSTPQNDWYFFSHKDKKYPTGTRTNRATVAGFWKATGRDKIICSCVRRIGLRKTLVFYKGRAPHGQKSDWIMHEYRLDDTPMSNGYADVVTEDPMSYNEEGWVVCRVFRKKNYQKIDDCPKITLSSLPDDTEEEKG

[11] = biological target: T10, GST-VND3 NAC domain (UniProt Q9FH59)
T10 sequence: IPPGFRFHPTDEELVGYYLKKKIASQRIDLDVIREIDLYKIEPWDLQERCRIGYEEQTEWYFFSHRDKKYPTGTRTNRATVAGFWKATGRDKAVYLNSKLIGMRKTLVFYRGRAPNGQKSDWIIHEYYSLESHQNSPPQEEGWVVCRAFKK

[12] = biological target: T11, GST-VND7 NAC domain (UniProt Q9C8W9)
T11 sequence: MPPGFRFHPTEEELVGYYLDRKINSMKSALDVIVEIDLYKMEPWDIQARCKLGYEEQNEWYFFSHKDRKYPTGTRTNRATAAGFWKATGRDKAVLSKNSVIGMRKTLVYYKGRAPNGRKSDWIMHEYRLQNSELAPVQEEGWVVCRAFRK

[13] = biological target: T12, GST-VOZ2 (Arabidopsis thaliana) (UniProt Q9SLB9)
T12 sequence: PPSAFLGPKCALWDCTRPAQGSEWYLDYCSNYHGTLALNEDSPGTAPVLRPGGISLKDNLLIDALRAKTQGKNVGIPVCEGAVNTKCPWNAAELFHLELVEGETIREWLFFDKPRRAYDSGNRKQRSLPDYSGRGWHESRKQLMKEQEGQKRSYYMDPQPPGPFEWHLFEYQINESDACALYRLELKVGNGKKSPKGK

Row | Sequence | binding signal [1] [E-score] | binding signal [2] [E-score] | binding signal [3] [E-score] | binding signal [4] [E-score] | binding signal [5] [E-score] | binding signal [6] [E-score] | binding signal [7] [E-score] | binding signal [8] [E-score] | binding signal [9] [E-score] | binding signal [10] [E-score] | binding signal [11] [E-score] | binding signal [12] [E-score] | binding signal [13] [E-score]
1 | AGTCAGCG | -0.0458 | -0.0588 | -0.109 | -0.144 | -0.153 | -0.0858 | -0.136 | -0.07 | -0.0154 | -0.00353 | -0.183 | -0.0803 | -0.0392
2 | AGTCAAGC | -0.00618 | -0.0918 | 0.0495 | 0.0126 | 0.0279 | 0.0135 | -0.133 | -0.0708 | 0.0828 | -0.0687 | 0.00671 | -0.0699 | -0.211
3 | TACGGTCA | -0.23 | -0.0247 | -0.154 | -0.0946 | -0.0772 | -0.0413 | 0.0976 | -0.088 | -0.0853 | -0.0743 | -0.0389 | -0.0647 | 0.0366
4 | CGGTCCAC | -0.0598 | -0.128 | 0.00728 | -0.207 | -0.0765 | -0.0794 | -0.152 | -0.149 | -0.0053 | -0.0731 | -0.171 | -0.123 | 0.0769
5 | CTCGGTCA | -0.021 | -0.109 | 0.0124 | -0.0275 | -0.133 | -0.0298 | -0.0291 | -0.0683 | – | -0.0723 | -0.00771 | -0.0712 | -0.00058
6 | GGAAGTCA | -0.0331 | 0.132 | 0.0521 | 0.0264 | 0.0278 | 0.0837 | 0.02 | 0.0436 | – | 0.0478 | -0.0709 | 0.0473 | -0.0362
7 | CAGGTCAA | -0.0316 | 0.0272 | -0.0122 | 0.0027 | -0.159 | -0.154 | -0.00966 | -0.00039 | -0.0545 | -0.137 | -0.156 | -0.0374 | -0.0659
8 | ACGGTCAG | -0.124 | -0.0829 | -0.0652 | -0.116 | -0.0805 | -0.129 | 0.0451 | -0.118 | – | 0.0355 | -0.0879 | 0.000735 | -0.0463
9 | GTCAGCGA | -0.0258 | -0.0371 | -0.0642 | -0.0986 | -0.0785 | -0.141 | -0.0183 | -0.0188 | -0.0133 | -0.0963 | -0.105 | -0.135 | 0.0285
10 | CGACGACC | -0.135 | -0.172 | -0.113 | -0.218 | -0.255 | -0.174 | -0.0654 | -0.215 | -0.0897 | -0.0663 | -0.168 | -0.171 | -0.0986
11 | CTAGGTCA | -0.0742 | -0.0197 | -0.0708 | 0.0273 | -0.0746 | -0.0492 | -0.0446 | -0.112 | 0.00183 | -0.11 | -0.0329 | -0.0622 | -0.0937
12 | ATGACCGG | -0.274 | -0.0823 | -0.142 | -0.211 | -0.192 | -0.0603 | 0.00103 | -0.187 | -0.207 | -0.139 | -0.231 | -0.199 | -0.118
13 | CCTTTGAC | 0.0178 | -0.0426 | -0.0303 | -0.0261 | -0.0469 | -0.0184 | -0.0634 | -0.00645 | 0.0589 | 0.101 | -0.0838 | 0.0281 | -0.0269
14 | ATTGACCC | -0.081 | -0.0702 | -0.0319 | -0.104 | -0.0192 | -0.035 | -0.00515 | 0.0177 | -0.0325 | -0.0375 | -0.0633 | -0.025 | 0.121
15 | AGGTCGTC | -0.0225 | -0.145 | -0.00751 | -0.137 | -0.183 | -0.0551 | -0.0722 | -0.101 | -0.0386 | -0.0595 | -0.191 | -0.174 | -0.139
16 | GAGTCAGA | -0.186 | -0.124 | -0.0967 | -0.0923 | -0.0121 | -0.115 | -0.134 | -0.121 | -0.162 | -0.0641 | -0.183 | -0.173 | -0.0532
17 | CTGACCTA | -0.072 | -0.0307 | -0.0118 | -0.139 | -0.0205 | -0.0857 | -0.0512 | -0.0846 | 0.0298 | -0.125 | -0.0943 | -0.0685 | -0.0508
18 | GCTGACCC | -0.103 | -0.173 | -0.198 | -0.135 | -0.138 | -0.243 | -0.117 | -0.0988 | -0.00172 | -0.13 | -0.23 | -0.173 | -0.0151
19 | AACGGTCA | 0.048 | -0.0673 | -0.00984 | 0.029 | -0.105 | 0.0431 | 0.0361 | 0.0186 | -0.0376 | -0.00052 | -0.106 | -0.0397 | -0.0575
20 | GTGGACCA | -0.0336 | -0.183 | -0.0105 | -0.0634 | -0.0602 | 0.0312 | -0.0422 | -0.0254 | -0.0583 | -0.0198 | -0.0575 | -0.105 | -0.134
21 | ATTTGACC | -0.0376 | -0.0389 | -0.11 | 0.079 | 0.00561 | -0.087 | -0.0283 | -0.0162 | -0.141 | -0.113 | -0.00194 | -0.0905 | 0.0742
22 | GCTTTGAC | -0.0509 | -0.093 | -0.0353 | -0.0701 | -0.0279 | -0.0731 | -0.103 | -0.0426 | -0.00153 | 0.00287 | -0.0568 | -0.13 | -0.0306
23 | CATGGTCA | -0.22 | -0.0349 | -0.112 | -0.113 | -0.131 | -0.152 | -0.0346 | -0.155 | -0.0503 | -0.178 | 0.0588 | -0.0871 | -0.0393
24 | GGTCAGCA | -0.131 | -0.176 | -0.136 | -0.194 | -0.191 | -0.199 | -0.0255 | -0.0501 | -0.065 | -0.07 | -0.0914 | -0.192 | -0.132
25 | AGTCAGAC | -0.0474 | -0.163 | 0.0719 | 0.0399 | 0.0392 | -0.122 | -0.0938 | -0.151 | -0.0962 | -0.125 | 0.0301 | 0.0119 | -0.0972
